Measured values reported in the supplement of paper PMC10037445.
The full ranking holds about 2,900 compounds; the median of “NF-kB SEAP reporter activity, fold change vs agonist alone” is about 0.99, and the highest 2% start at about 2.6. Some of the results follow.

Key:
[1] = tested on: RAW-Dual; assay: NF-kB SEAP reporter activity, fold change vs agonist alone; higher = enhanced NF-kB activity
Procedure, shortened: (§1)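 RAW-Dual macrophages were seeded in DMEM at 50,000 cells/well in 384-well plates, given 50 nL of library stock by pin tool, and given a PRR agonist 1 h later. Plates were held at 37 °C, 5% CO2 for 20 hours, after which supernatant was read for IRF by QuantiLuc luminescence and for NF-κB by QuantiBlue absorbance at 620 nm. Reporter activity is expressed as fold change over wells that received agonist alone. A well was called cytotoxic when IncuCyte confluency fell below 70% of agonist controls in both mask sets.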

[2] = tested on: RAW-Dual; assay: NF-kB SEAP reporter activity, fold change vs agonist alone; cytotoxicity flag (confluency mask): not cytotoxic; higher = enhanced NF-kB activity
Procedure, shortened: as §1

[3] = tested on: RAW-Dual; assay: NF-kB SEAP reporter activity, fold change vs agonist alone; cytotoxicity flag (confluency mask): cytotoxic (confluency <70% of control); higher = enhanced NF-kB activity
Procedure, shortened: as §1

[4] = library stock concentration (final ~1000-fold dilution): 10 mM, cytotoxicity flag (confluency mask): not cytotoxic, agonist: Imiquimod (TLR7) […]
[5] = library stock concentration (final ~1000-fold dilution): 10 mM, cytotoxicity flag (confluency mask): not cytotoxic, agonist: MPLA (TLR4) […]
[6] = agonist: ODN 1826 (TLR9) 0.5 ug/mL
[7] = agonist: Pam2CSK4 (TLR2/6) 0.1 ug/mL
[8] = agonist: Pam3CSK4 (TLR2/1) 0.1 ug/mL
[9] = library stock concentration (final ~1000-fold dilution): 2 mM, cytotoxicity flag (confluency mask): not cytotoxic, agonist: Imiquimod (TLR7) […]
[10] = library stock concentration (final ~1000-fold dilution): 2 mM, cytotoxicity flag (confluency mask): not cytotoxic, agonist: MPLA (TLR4) […]

SMILES: C=CC(=O)Nc1cccc(Oc2nc(Nc3ccc(N4CCN(C)CC4)cc3OC)ncc2Cl)c1
- NF-kB SEAP reporter activity [1, 4]: 0.931
- NF-kB SEAP reporter activity [1, 5]: 0.977

SMILES: C=CC(=O)Nc1cccc(Oc2nc(Nc3ccc(N4CCN(C)CC4)cc3OC)ncc2Cl)c1 (library stock concentration (final ~1000-fold dilution): 10 mM)
- NF-kB SEAP reporter activity ([2]; agonist: LPS (TLR4) 0.1 ug/mL): 0.915
- NF-kB SEAP reporter activity [2, 6]: 0.863
- NF-kB SEAP reporter activity [2, 7]: 0.802
- NF-kB SEAP reporter activity [2, 8]: 0.684

SMILES: CCCC(Nc1nc(-c2ccc(NC(=O)NCC)c(OC)c2)ncc1C)c1cccnc1 (stereo not drawn) (library stock concentration (final ~1000-fold dilution): 10 mM)
- NF-kB SEAP reporter activity ([2]; agonist: LPS (TLR4) 0.1 ug/mL): 5.93
- NF-kB SEAP reporter activity [2, 6]: 3.66
- NF-kB SEAP reporter activity [2, 7]: 2.2
- NF-kB SEAP reporter activity [2, 8]: 2.92

SMILES: CCCC(Nc1nc(-c2ccc(NC(=O)NCC)c(OC)c2)ncc1C)c1cccnc1 (stereo not drawn)
- NF-kB SEAP reporter activity [1, 4]: 2.63
- NF-kB SEAP reporter activity [1, 5]: 2.57

SMILES: Cc1ccccc1CN1C2=NCCN2C(=O)C2=C1CCN(Cc1ccccc1)C2
- NF-kB SEAP reporter activity [1, 4]: 0.937
- NF-kB SEAP reporter activity [1, 5]: 1.04

SMILES: Cc1ccccc1CN1C2=NCCN2C(=O)C2=C1CCN(Cc1ccccc1)C2 (library stock concentration (final ~1000-fold dilution): 10 mM)
- NF-kB SEAP reporter activity ([2]; agonist: LPS (TLR4) 0.1 ug/mL): 0.994
- NF-kB SEAP reporter activity [2, 6]: 1.11
- NF-kB SEAP reporter activity [2, 7]: 1.02
- NF-kB SEAP reporter activity [2, 8]: 0.832

SMILES: CCCCCCCCCCCCCCCC(=O)NC(CCSC)C(=O)NCC(=O)NC(Cc1ccc(O)cc1)C(=O)NC(CCC(N)=O)C(=O)NC(CCCCN)C(=O)NC(CCCCN)C(=O)NC(CC(C)C)C(=O)NC(CCCNC(=N)N)C(=O)NC(CO)C(=O)NC(CCSC)C(=O)NC(C(=O)NC(CC(=O)O)C(=O)NC(CCCCN)C(=O)NC(Cc1ccc(O)cc1)C(=O)NC(CCCNC(=N)N)C(=O)NC(CC(C)C)C(=O)O)C(C)O (stereo not drawn) (library stock concentration (final ~1000-fold dilution): 10 mM)
- NF-kB SEAP reporter activity ([3]; agonist: LPS (TLR4) 0.1 ug/mL): 0.885
- NF-kB SEAP reporter activity [3, 6]: 0.714
- NF-kB SEAP reporter activity [3, 7]: 0.614
- NF-kB SEAP reporter activity [3, 8]: 0.68

SMILES: CCCCCCCCCCCCCCCC(=O)NC(CCSC)C(=O)NCC(=O)NC(Cc1ccc(O)cc1)C(=O)NC(CCC(N)=O)C(=O)NC(CCCCN)C(=O)NC(CCCCN)C(=O)NC(CC(C)C)C(=O)NC(CCCNC(=N)N)C(=O)NC(CO)C(=O)NC(CCSC)C(=O)NC(C(=O)NC(CC(=O)O)C(=O)NC(CCCCN)C(=O)NC(Cc1ccc(O)cc1)C(=O)NC(CCCNC(=N)N)C(=O)NC(CC(C)C)C(=O)O)C(C)O (stereo not drawn)
- NF-kB SEAP reporter activity ([1]; library stock concentration (final ~1000-fold dilution): 10 mM, cytotoxicity flag (confluency mask): cytotoxic (confluency <70% of control), agonist: Imiquimod (TLR7) […]): 1.02
- NF-kB SEAP reporter activity ([1]; library stock concentration (final ~1000-fold dilution): 10 mM, cytotoxicity flag (confluency mask): cytotoxic (confluency <70% of control), agonist: MPLA (TLR4) […]): 1.02

SMILES: Cc1ccc2c(c1)C(=O)C1(O)CCN(c3ccccc3)C1=N2 (stereo not drawn)
- NF-kB SEAP reporter activity [1, 4]: 1.07
- NF-kB SEAP reporter activity [1, 5]: 1.17

SMILES: Cc1ccc2c(c1)C(=O)C1(O)CCN(c3ccccc3)C1=N2 (stereo not drawn) (library stock concentration (final ~1000-fold dilution): 10 mM)
- NF-kB SEAP reporter activity ([2]; agonist: LPS (TLR4) 0.1 ug/mL): 1.18
- NF-kB SEAP reporter activity [2, 6]: 0.682
- NF-kB SEAP reporter activity [2, 7]: 0.891
- NF-kB SEAP reporter activity [2, 8]: 0.862

SMILES: C=C(CC(=O)OCCCCCCCC)C(=O)O (library stock concentration (final ~1000-fold dilution): 10 mM)
- NF-kB SEAP reporter activity ([2]; agonist: LPS (TLR4) 0.1 ug/mL): 0.76
- NF-kB SEAP reporter activity [2, 6]: 0.641
- NF-kB SEAP reporter activity [2, 7]: 0.455
- NF-kB SEAP reporter activity [2, 8]: 0.645

SMILES: C=C(CC(=O)OCCCCCCCC)C(=O)O
- NF-kB SEAP reporter activity [1, 4]: 0.711
- NF-kB SEAP reporter activity [1, 5]: 0.955

SMILES: CC(CSC(=O)c1ccccc1)C(=O)N1CC(Sc2ccccc2)CC1C(=O)O (stereo not drawn)
- NF-kB SEAP reporter activity [1, 9]: 0.904
- NF-kB SEAP reporter activity [1, 10]: 1.02

SMILES: CC(CSC(=O)c1ccccc1)C(=O)N1CC(Sc2ccccc2)CC1C(=O)O (stereo not drawn) (library stock concentration (final ~1000-fold dilution): 2 mM)
- NF-kB SEAP reporter activity ([2]; agonist: LPS (TLR4) 0.1 ug/mL): 1.44
- NF-kB SEAP reporter activity [2, 6]: 1.01
- NF-kB SEAP reporter activity [2, 7]: 1.16
- NF-kB SEAP reporter activity [2, 8]: 1.26

SMILES: CS(=O)(=O)N1CCc2c(-c3cnc(N)nc3)nc(N3CCOCC3)nc21
- NF-kB SEAP reporter activity [1, 4]: 1.07
- NF-kB SEAP reporter activity [1, 5]: 0.909

SMILES: CS(=O)(=O)N1CCc2c(-c3cnc(N)nc3)nc(N3CCOCC3)nc21 (library stock concentration (final ~1000-fold dilution): 10 mM)
- NF-kB SEAP reporter activity ([2]; agonist: LPS (TLR4) 0.1 ug/mL): 1.63
- NF-kB SEAP reporter activity [2, 6]: 1.13
- NF-kB SEAP reporter activity [2, 7]: 0.743
- NF-kB SEAP reporter activity [2, 8]: 0.693

SMILES: O=c1oc2ccccc2c(O)c1Cc1c(O)c2ccccc2oc1=O
- NF-kB SEAP reporter activity [1, 4]: 0.905
- NF-kB SEAP reporter activity [1, 5]: 0.991

SMILES: O=c1oc2ccccc2c(O)c1Cc1c(O)c2ccccc2oc1=O (library stock concentration (final ~1000-fold dilution): 10 mM)
- NF-kB SEAP reporter activity ([2]; agonist: LPS (TLR4) 0.1 ug/mL): 1.15
- NF-kB SEAP reporter activity [2, 6]: 0.94
- NF-kB SEAP reporter activity [2, 7]: 1.09
- NF-kB SEAP reporter activity [2, 8]: 0.893

SMILES: CC1CNCCCN1S(=O)(=O)c1cccc2cncc(F)c12.Cl.O.O (stereo not drawn) (library stock concentration (final ~1000-fold dilution): 10 mM)
- NF-kB SEAP reporter activity ([2]; agonist: LPS (TLR4) 0.1 ug/mL): 1.11
- NF-kB SEAP reporter activity [2, 6]: 0.99
- NF-kB SEAP reporter activity [2, 7]: 1.27
- NF-kB SEAP reporter activity [2, 8]: 1.5

SMILES: CC1CNCCCN1S(=O)(=O)c1cccc2cncc(F)c12.Cl.O.O (stereo not drawn)
- NF-kB SEAP reporter activity [1, 4]: 1.01
- NF-kB SEAP reporter activity [1, 5]: 1.08

SMILES: Nc1nc(=S)c2[nH]cnc2[nH]1
- NF-kB SEAP reporter activity [1, 4]: 0.91
- NF-kB SEAP reporter activity [1, 5]: 0.608

SMILES: Nc1nc(=S)c2[nH]cnc2[nH]1 (library stock concentration (final ~1000-fold dilution): 10 mM)
- NF-kB SEAP reporter activity ([2]; agonist: LPS (TLR4) 0.1 ug/mL): 0.344
- NF-kB SEAP reporter activity [2, 6]: 0.37
- NF-kB SEAP reporter activity [2, 7]: 0.287
- NF-kB SEAP reporter activity [2, 8]: 0.369

SMILES: O=C1c2ccccc2C(=O)c2c1ccc(O)c2O (library stock concentration (final ~1000-fold dilution): 10 mM)
- NF-kB SEAP reporter activity ([2]; agonist: LPS (TLR4) 0.1 ug/mL): 1.16
- NF-kB SEAP reporter activity [2, 6]: 1.02
- NF-kB SEAP reporter activity [2, 7]: 1.18
- NF-kB SEAP reporter activity [2, 8]: 1.17

SMILES: O=C1c2ccccc2C(=O)c2c1ccc(O)c2O
- NF-kB SEAP reporter activity [1, 4]: 1.13
- NF-kB SEAP reporter activity [1, 5]: 1.17

SMILES: CC(/C=C1\SC(=S)N(CC(=O)O)C1=O)=C\c1ccccc1 (library stock concentration (final ~1000-fold dilution): 2 mM)
- NF-kB SEAP reporter activity ([2]; agonist: LPS (TLR4) 0.1 ug/mL): 1.41
- NF-kB SEAP reporter activity [2, 6]: 1.03
- NF-kB SEAP reporter activity [2, 7]: 1.11
- NF-kB SEAP reporter activity [2, 8]: 1.01

SMILES: CC(/C=C1\SC(=S)N(CC(=O)O)C1=O)=C\c1ccccc1
- NF-kB SEAP reporter activity [1, 9]: 0.994
- NF-kB SEAP reporter activity [1, 10]: 1.08
